Test results from article PMC4336329 (PLoS ONE, 2015).
About 14,000 (4.5%) of roughly 310,000 compounds showed an effect of 50% or more. Effects have a minus sign here. The list shows a part of the results.

These molecules were tested against human ether-à-go-go-related gene (hERG) potassium channel (human, UniProt Q12809) (assay: primary screen, population patch clamp on CHO cells stably expressing hERG).
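Note: peak tail current of the secondary pulse compared with the same well before compound.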

human ether-à-go-go-related gene (hERG) potassium channel, sequence (Q12809 whole entry, looked up): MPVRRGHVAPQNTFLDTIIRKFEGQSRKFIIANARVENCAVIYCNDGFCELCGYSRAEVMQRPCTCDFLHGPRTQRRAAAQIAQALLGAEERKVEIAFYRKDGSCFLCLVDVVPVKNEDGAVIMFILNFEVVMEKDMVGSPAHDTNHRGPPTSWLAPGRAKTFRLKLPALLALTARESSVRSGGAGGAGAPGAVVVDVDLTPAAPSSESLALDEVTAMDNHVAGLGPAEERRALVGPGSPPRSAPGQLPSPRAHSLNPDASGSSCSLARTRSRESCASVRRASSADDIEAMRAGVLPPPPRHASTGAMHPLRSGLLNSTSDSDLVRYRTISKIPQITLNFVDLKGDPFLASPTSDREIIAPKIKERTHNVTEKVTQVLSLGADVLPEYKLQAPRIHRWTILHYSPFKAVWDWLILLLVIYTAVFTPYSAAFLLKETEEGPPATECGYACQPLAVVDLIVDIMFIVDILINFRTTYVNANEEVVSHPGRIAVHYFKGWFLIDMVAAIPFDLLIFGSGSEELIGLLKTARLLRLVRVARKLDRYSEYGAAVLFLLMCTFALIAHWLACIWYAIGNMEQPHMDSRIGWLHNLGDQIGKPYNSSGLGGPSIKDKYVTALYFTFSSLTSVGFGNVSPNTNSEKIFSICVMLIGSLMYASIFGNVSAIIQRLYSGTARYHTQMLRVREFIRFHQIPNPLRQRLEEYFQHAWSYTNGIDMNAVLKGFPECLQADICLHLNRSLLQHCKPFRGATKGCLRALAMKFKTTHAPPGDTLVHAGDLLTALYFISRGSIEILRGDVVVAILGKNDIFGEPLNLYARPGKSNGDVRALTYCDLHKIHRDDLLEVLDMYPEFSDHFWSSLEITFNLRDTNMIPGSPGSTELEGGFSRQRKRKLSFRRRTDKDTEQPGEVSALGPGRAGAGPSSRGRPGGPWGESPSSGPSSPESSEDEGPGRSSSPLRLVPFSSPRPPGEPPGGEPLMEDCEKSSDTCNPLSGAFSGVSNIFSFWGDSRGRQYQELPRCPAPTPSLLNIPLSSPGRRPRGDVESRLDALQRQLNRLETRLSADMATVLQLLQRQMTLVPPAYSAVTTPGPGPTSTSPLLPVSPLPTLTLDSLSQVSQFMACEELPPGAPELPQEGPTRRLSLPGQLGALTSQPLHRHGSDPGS

Going from CCOC(=O)c1ccc(NC(=O)Nc2c(C)nn(C)c2C)cc1 to CCOC(=O)c1cnc(-n2nc(C)cc2C)nc1Nc1cccc(C(C)=O)c1, the “hERG current change (%, negative = inhibition) at 10uM” value falls from -3.78% to -8.14%.

Compared with CC(C)Oc1ccc(S(=O)(=O)N2CCCCC2)cc1NC(=O)C1CCC1, Cc1ccc(NC(=O)CSc2nnc(C3CC3)n2C)cc1S(=O)(=O)N1CCCCC1 is higher in “hERG current change (%, negative = inhibition) at 10uM” value: -30.4% for the first, -16.6% for the second.

Going from COc1cccc(-c2nn(-c3ccccc3)cc2C(=O)O)c1 to Cc1ncc(N=Nc2ccccc2Cl)c(-c2ccccc2)n1, the “hERG current change (%, negative = inhibition) at 10uM” value rises from 1.11% to 2%.

First: COc1cc(OC)cc(C(=O)NCC(=O)OC2CCOC2=O)c1 (stereo not shown)
Second: COc1ccc(C(=O)NCC(=O)NCC(=O)OCC(=O)C(C)(C)C)cc1
The “hERG current change (%, negative = inhibition) at 10uM” value of the first is higher: 10.4% for the first, 10% for the second.

First: CC(=O)Nc1ccc(C(=O)N2CCCC2)cc1
Second: CCCCCCC(=O)Nc1ccc(C(=O)N2CCCC2)cc1
The “hERG current change (%, negative = inhibition) at 10uM” value of the first is higher: 5.29% for the first, 0.864% for the second.

Compared with Cc1cccc(C)c1NC(=O)C1CCCN1C(=O)NCc1ccccc1 (stereo not shown), O=C(NCc1ccccc1)C1CCCN1S(=O)(=O)c1ccc(F)cc1 (stereo not shown) is higher in “hERG current change (%, negative = inhibition) at 10uM” value: 17.3% for the first, 20.6% for the second.

Compared with Cc1ccc(OP(=O)(Nc2c(C)n(C)n(-c3ccccc3)c2=O)Oc2ccc(C)cc2)cc1, COc1ccc(OC)c(C(=O)c2ccc(C(=O)Nc3ccc4ccccc4c3)cc2)c1 is higher in “hERG current change (%, negative = inhibition) at 10uM” value: -7.98% for the first, 8.94% for the second.

Compared with Cc1nn(CC(=O)Nc2ccc(Cl)cn2)c(C)c1[N+](=O)[O-], Cc1ccc2cn[nH]c2c1[N+](=O)[O-] is higher in “hERG current change (%, negative = inhibition) at 10uM” value: -7.96% for the first, -4.52% for the second.

Going from Cc1cc(C)nc(N2N=C(C(C)(C)C)CC2=O)n1 to Cc1ccc(NC(=O)CSc2nnc(CCNC(=O)OC(C)(C)C)o2)c(C)c1, the “hERG current change (%, negative = inhibition) at 10uM” value falls from 11.9% to -19.3%.

First: CC1S/C(=N/N=C2CCC(C(C)(C)C)CC2)NC1=O (stereo not shown)
Second: CC(C)(C)C1CCC(=NNC(=S)Nc2cccnc2)CC1 (stereo not shown)
The “hERG current change (%, negative = inhibition) at 10uM” value of the first is lower: 8.05% for the first, 10% for the second.

Compared with Cc1nc2c3cc(Cl)ccc3n(CCN3CCCCC3)c2s1.Cl, Cl.O=C(CN1CCCC1)Nc1ccc2c(c1)CCC2 is higher in “hERG current change (%, negative = inhibition) at 10uM” value: -70% for the first, -1.69% for the second.

First: Cc1ccc(Cl)cc1NC(=O)C(Cc1ccccc1)N1C(=O)C2C3CCC(C3)C2C1=O (stereo not shown)
Second: CN(CC(=O)Nc1c(Cl)cccc1Cl)C(=O)CCCN1C(=O)c2ccccc2C1=O
The “hERG current change (%, negative = inhibition) at 10uM” value of the first is lower: -13.4% for the first, -9.14% for the second.

Compared with Cn1c(SCc2c(Cl)cccc2Cl)nc(C(F)(F)F)cc1=O, COC(=O)Cc1c(O)ccn(Cc2cccc(C(F)(F)F)c2)c1=O is higher in “hERG current change (%, negative = inhibition) at 10uM” value: -7.12% for the first, 14.1% for the second.

Compared with CCCc1cc(C(=O)Nc2sc3c(c2C(=O)OCC)CCCC3)no1, Cc1cc(C)n(Cc2ccc(C(=O)NCCC3=CCCCC3)o2)n1 is lower in “hERG current change (%, negative = inhibition) at 10uM” value: 6.07% for the first, -15.8% for the second.

Going from Cc1occc1C(=O)NC(C)C1CCCO1 (stereo not shown) to Cc1cc2c(c(=O)n1CC1CCCO1)C(c1ccco1)C(C#N)=C(N)O2 (stereo not shown), the “hERG current change (%, negative = inhibition) at 10uM” value rises from 1.07% to 3.35%.

Compared with CCOC(=O)c1ccccc1NC(=O)C1CCN(c2ncnc3sc(C)c(C)c23)CC1, CCC1(C)Cc2c(sc3c2c(=O)n(C)c2nnc(SCC(=O)c4ccccc4)n32)CO1 (stereo not shown) is higher in “hERG current change (%, negative = inhibition) at 10uM” value: -11.4% for the first, -6.48% for the second.

Going from Cc1cccc(-c2noc(CCCC(=O)N3CCOCC3)n2)c1 to O=C(OCCc1cc2ccccc2c(=O)o1)N1CCOCC1, the “hERG current change (%, negative = inhibition) at 10uM” value rises from 5.26% to 13.5%.

Going from O=C(Nc1cccnc1)C1CCCN(S(=O)(=O)c2ccccc2)C1 (stereo not shown) to CC1CCCN(S(=O)(=O)c2cccc([N+](=O)[O-])c2)C1 (stereo not shown), the “hERG current change (%, negative = inhibition) at 10uM” value rises from -7.62% to 0.457%.

First: COc1ccc([C@H]2[C@H](C(=O)OC(C)(C)C)N3N=Cc4ccccc4C3C23C(=O)c2ccccc2C3=O)c(OC)c1 (stereo partly shown)
Second: COc1ccc(OC)c(C2C(C(=O)Nc3nc4ccccc4s3)=C(C)NC3=C2C(=O)CCC3)c1 (stereo not shown)
The “hERG current change (%, negative = inhibition) at 10uM” value of the first is lower: -7.11% for the first, 12.8% for the second.

First: Cc1cc(CC(C)C)n(-c2nc3ccccc3c(=O)n2OCC(=O)N(C)C)n1
Second: O=C(c1ccc(Br)cc1)N(Cc1nc2ccccc2c(=O)[nH]1)C1CCCC1
The “hERG current change (%, negative = inhibition) at 10uM” value of the first is higher: -3.47% for the first, -13.4% for the second.

Going from COc1ccccc1/C=C/C(=O)OCCN1CCOCC1.Cl to Cn1cc(/C=C2\SC(=S)N(N3CCOCC3)C2=O)c2ccccc21, the “hERG current change (%, negative = inhibition) at 10uM” value rises from 2.69% to 21.4%.

Going from O=C(Nc1ccccc1)C1=C[C@@H](c2ccccc2)C[C@@H](OCc2ccc(CO)cc2)O1 to O=C(O)c1ccc(NC(=S)NC(=O)C(c2ccccc2)c2ccccc2)cc1, the “hERG current change (%, negative = inhibition) at 10uM” value falls from 2.2% to -6.52%.

Going from Cc1ccccc1NC(=S)NC(NC(=O)c1ccco1)C(Cl)(Cl)Cl (stereo not shown) to Cc1cccc(NC(=O)c2cc(S(=O)(=O)NCc3ccco3)ccc2F)c1C, the “hERG current change (%, negative = inhibition) at 10uM” value rises from -5.77% to 4.11%.

Compared with Oc1ccccc1-c1nc(NCc2cccnc2)c2ccccc2n1, CCOC1(c2ccccc2)OC(=O)c2ccccc21 (stereo not shown) is lower in “hERG current change (%, negative = inhibition) at 10uM” value: 9.87% for the first, 0.901% for the second.

Compared with O=C(NC(Cc1ccccc1)C(=O)O)/C(=C/c1ccc([N+](=O)[O-])cc1)NC(=O)c1ccco1 (stereo not shown), CCOC(=O)CC(NC(=O)c1cc2ccccc2oc1=O)c1cccc([N+](=O)[O-])c1 (stereo not shown) is lower in “hERG current change (%, negative = inhibition) at 10uM” value: 12.6% for the first, -58.5% for the second.

Compared with O=C(NCc1ccc(Cl)cc1)NCC(F)(F)F, COCCNC(=O)C1Nc2ccc(C(F)(F)F)cc2C2C=CCC12 (stereo not shown) is lower in “hERG current change (%, negative = inhibition) at 10uM” value: 7% for the first, -1.62% for the second.

Going from Nc1nc2nn(-c3ccccc3)nc2c(=O)[nH]1 to O=C(Nc1c2c(nn1-c1ccccc1)CS(=O)C2)c1ccc2c(c1)OCO2 (stereo not shown), the “hERG current change (%, negative = inhibition) at 10uM” value falls from 12.5% to -1.09%.

First: CC(Nc1nc(-c2ccc(F)cc2)cs1)c1nc2cc(C(F)(F)F)ccc2n1CCOCCO (stereo not shown)
Second: O=C(Nc1ccc(F)cc1F)c1cccn1-c1ncc(C(F)(F)F)cc1Cl
The “hERG current change (%, negative = inhibition) at 10uM” value of the first is lower: -18.1% for the first, -5.39% for the second.

Compared with O=C(CN1C(=O)S/C(=C\c2ccccc2)C1=O)NC1CCS(=O)(=O)C1 (stereo not shown), CC(C)(C)NC(=O)CN(Cc1cccs1)C(=O)CN1C(=O)C(=O)c2ccccc21 is lower in “hERG current change (%, negative = inhibition) at 10uM” value: 3.59% for the first, -5.03% for the second.

First: c1ccc(CC2CCCCN2)cc1 (stereo not shown)
Second: S=C(NCCc1ccccc1)NCC1CCCO1 (stereo not shown)
The “hERG current change (%, negative = inhibition) at 10uM” value of the first is higher: 12.5% for the first, 7.28% for the second.

Going from Brc1ccc(-c2csc(N3CCCCCC3)n2)cc1 to O=C1NC(=S)S/C1=C\c1cc2ccccc2nc1N1CCCCC1, the “hERG current change (%, negative = inhibition) at 10uM” value falls from 17.1% to 4.78%.

First: C=CCn1c(O)c(C(CC)=NCc2ccco2)c(=O)[nH]c1=O
Second: CCCN(CC(=O)Nc1cc(Cl)ccc1Cl)C(=O)/C=C/c1ccco1
The “hERG current change (%, negative = inhibition) at 10uM” value of the first is higher: -27.6% for the first, -35.5% for the second.

First: CC(C)(CNc1ccc(C(F)(F)F)cc1[N+](=O)[O-])N1CCOCC1
Second: O=C(NC(=S)Nc1ccc(CN2CCOCC2)cc1)c1ccc([N+](=O)[O-])cc1Cl
The “hERG current change (%, negative = inhibition) at 10uM” value of the first is lower: 11.8% for the first, 18.8% for the second.

Going from COc1ccc(C(=O)OCC(=O)Nc2ccc(F)c(F)c2F)cc1OC to COc1ccc(CNCc2ccccc2[N+](=O)[O-])cc1OC.O=C(O)C(=O)O, the “hERG current change (%, negative = inhibition) at 10uM” value rises from -11.6% to -5.58%.

Compared with COCc1nnc(NC(=O)c2cc(OC)c(OC)cc2[N+](=O)[O-])s1, CCOC(=O)C(C)Oc1cc(Cl)c(C=O)cc1OC (stereo not shown) is higher in “hERG current change (%, negative = inhibition) at 10uM” value: 1.59% for the first, 4.6% for the second.

Compared with Cc1cccc(C(=O)N2CCN(S(=O)(=O)N3CCCCCC3)CC2)c1, Cc1ccc(CCNC(=O)CN2C(=O)COc3ccc(S(=O)(=O)N4CCCCC4)cc32)cc1 is higher in “hERG current change (%, negative = inhibition) at 10uM” value: -21.6% for the first, -13.7% for the second.

Going from COc1ccc(OCC(O)CNc2ccc(Br)cc2)cc1 (stereo not shown) to COc1ccc(NC(=O)CC2C(=O)N(c3ccc(OC)cc3)C(=O)N2CCc2cccs2)cc1 (stereo not shown), the “hERG current change (%, negative = inhibition) at 10uM” value falls from 9.56% to -0.997%.

Compared with O=C(Nc1ccc2c(c1)OCO2)C1CCCN1C(=O)Nc1cccc(F)c1 (stereo not shown), CC(=O)Nc1ccc(NC(=O)CSC2=NS(=O)(=O)c3ccccc3N2)cc1 is higher in “hERG current change (%, negative = inhibition) at 10uM” value: -40.4% for the first, 5.2% for the second.

First: CCOc1cc(N2CCOCC2)c(OCC)cc1NC(=O)CCC1CCCC1
Second: CCOC(=O)N1CCN(S(=O)(=O)c2cc(Cl)c(OC)cc2Cl)CC1
The “hERG current change (%, negative = inhibition) at 10uM” value of the first is lower: -30.2% for the first, 4.96% for the second.

Going from Cn1cccc1C(=O)Nc1nccs1 to CCN(CC)C(=O)c1cn(CCC#N)nc1-c1ccc(F)cc1, the “hERG current change (%, negative = inhibition) at 10uM” value falls from 7.96% to -9.85%.

First: CCN(CC)C1=C(Cl)C(=O)C(Cl)C12OCCO2 (stereo not shown)
Second: FCCCOc1ccc(/C=N/OCc2c(Cl)cccc2Cl)cc1
The “hERG current change (%, negative = inhibition) at 10uM” value of the first is higher: 5.63% for the first, 0.839% for the second.

Going from COc1ccc(-c2cn[nH]c2-c2ccc(OCc3ccc([N+](=O)[O-])cc3)cc2O)cc1 to O=C(NC1CCCC1)C(c1ccc(F)cc1)N(Cc1ccc(F)cc1)C(=O)c1ccn[nH]1 (stereo not shown), the “hERG current change (%, negative = inhibition) at 10uM” value falls from -9.1% to -20.5%.

Compared with CC(Oc1ccc(Br)cc1)C(=O)N1CCC(C(N)=O)CC1 (stereo not shown), N#C/C(=C\c1c[nH]c2ccccc12)C(=O)NC1CC1 is higher in “hERG current change (%, negative = inhibition) at 10uM” value: -78.1% for the first, 11.1% for the second.

Compared with N#Cc1ccc(S(=O)(=O)Nc2ccc3ccccc3n2)cc1, O=C(CSc1ccc2nnc(-c3cccnc3)n2n1)NCc1ccco1 is lower in “hERG current change (%, negative = inhibition) at 10uM” value: -15.5% for the first, -44.3% for the second.
